From the supplement of paper PMC3724861
The list shows a part of the results.

System: T1, Caupolican (Caup) homeodomain DNA-binding domain
T1 sequence: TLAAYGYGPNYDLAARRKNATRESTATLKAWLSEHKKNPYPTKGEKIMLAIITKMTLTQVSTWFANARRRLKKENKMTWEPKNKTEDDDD
Test: PBM E-score (8-mer, recovered from the published 9-mer minima) (E-score (dimensionless, -0.5 to 0.5)); Drosophila protein; higher = stronger relative binding preference, active = 0.31 or more
Procedure, shortened: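 Caup's homeodomain DNA-binding domain (residues 214-303) was produced by in vitro transcription and translation and applied at 100 nM to custom-designed protein binding microarrays. Each value is an enrichment score giving relative binding preference for a short DNA word; higher means stronger. Published 9-mer scores were the minimum of their two constituent 8-mer scores, and the 8-mer values were recovered from those minima. A cutoff of 0.31 marks candidate binding sequences.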

| Sequence | PBM E-score |
| --- | --- |
| GTTCCCGA | inactive: -0.0674 |
| AAGGACTG | inactive: -0.131 |
| GCCCTAAC | inactive: -0.104 |
| ACTACATA | active: 0.35 |
| CTGATGCC | inactive: -0.0515 |
| CTAATCAC | inactive: 0.17 |
| CTTTCTCC | inactive: -0.143 |
| CCAAAGCC | inactive: -0.149 |
| ACACAGTC | inactive: 0.164 |
| CCGTCTAG | inactive: -0.143 |
| GTCTCTAA | inactive: -0.0163 |
| AACCGCAA | inactive: -0.0707 |
| ACGACCCA | ≥ -0.0427 |
| GCATGCTA | inactive: 0.0372 |
| CGGCCACA | inactive: -0.158 |
| CGGGCCTA | ≥ -0.155 |
| GACGAGCC | inactive: -0.103 |
| GAACTTTA | inactive: -0.00695 |
| CATTGATC | inactive: 0.193 |
| ATGTATAC | active: 0.356 |
| GGCACGCC | inactive: -0.299 |
| CATTTTCC | inactive: 0.0307 |
| CATCCGGG | inactive: -0.0954 |

| Sequence | PBM E-score |
| --- | --- |
| TTAAACAA | inactive: 0.23 |
| CAAAAGGC | inactive: -0.126 |
| AATGAACA | active: 0.317 |
| GTATACGA | inactive: 0.164 |
| GCAACAGA | inactive: 0.0449 |
| AACCTCAT | inactive: 0.0361 |
| ATCTCACG | inactive: -0.0706 |
| ATCCTTAG | inactive: 0.0613 |
| AGATAGAT | inactive: -0.017 |
| GGCTATAA | inactive: 0.0235 |
| ACCACAGG | inactive: -0.121 |
| ATCCCGCC | inactive: -0.151 |
| CAAAGCGC | inactive: -0.207 |
| CGGACCAG | inactive: -0.154 |
| ACACGGCG | inactive: 0.121 |
| ACCCGGAT | inactive: -0.134 |
| AGGCTCAA | inactive: -0.147 |
| ACGCGTAA | inactive: 0.102 |
| CGCAATTC | inactive: -0.0273 |
| ATGAATGG | inactive: 0.00759 |
| TAGAGCGA | inactive: 0.00712 |
| CGTCACCA | inactive: -0.0548 |
| AAACCTGC | inactive: -0.0458 |

| Sequence | PBM E-score |
| --- | --- |
| CCCCGACC | inactive: -0.226 |
| AATAATGC | inactive: 0.196 |
| CGGCAACA | inactive: 0.135 |
| GGGTGTCA | inactive: 0.0669 |
| AGAGTTTG | inactive: 0.07 |
| TACGCCTA | inactive: 0.0384 |
| AGCTGTCC | inactive: 0.0287 |
| ACTAAAAC | inactive: 0.158 |
| TACGAAAA | inactive: 0.121 |
| ATCATCAT | inactive: 0.178 |
| GAATAGGA | inactive: 0.0312 |
| CATCAAAA | inactive: 0.0461 |
| AAACTAAG | inactive: 0.122 |
| ACAGATAT | inactive: 0.159 |
| ACGTTTCG | inactive: 0.00718 |
| AAAGGACT | inactive: -0.036 |
| GCCCGCAA | inactive: -0.142 |
| GTTCGCCA | inactive: -0.0903 |
| ATGTAAAC | active: 0.36 |
| ACTCCCGC | inactive: -0.206 |
| ACACGCCA | inactive: 0.143 |
| CTCTTACA | inactive: 0.201 |
| CGGATCTA | inactive: -0.0187 |

| Sequence | PBM E-score |
| --- | --- |
| CTGAGAAC | inactive: 0.0563 |
| TCATTTCA | inactive: 0.0666 |
| CAAATGTC | inactive: 0.141 |
| ATTGGCGC | inactive: -0.109 |
| CTGGGAAG | inactive: -0.191 |
| AAAGGGCC | inactive: -0.21 |
| CACTCGAC | inactive: 0.0164 |
| ACATGGAC | active: 0.338 |
| AGCCCACA | inactive: -0.0841 |
| ATGCACCC | inactive: -0.0289 |
| GGACAAAA | inactive: 0.0445 |
| CGGCATTC | inactive: -0.152 |
| GGGGTATA | inactive: -0.109 |
| CCGCGACG | inactive: -0.223 |
| ACATGGCG | inactive: 0.191 |
| AAGTTAAA | inactive: 0.112 |
| ATAGGTAG | inactive: 0.0356 |
| CTTCTGAA | inactive: -0.0808 |
| ACGGGCTA | inactive: -0.16 |
| GCTTGCAA | inactive: 0.115 |
| TAATCTCA | inactive: 0.0667 |
| AATTCTAC | inactive: 0.16 |
| ACGATAAG | inactive: 0.0851 |

| Sequence | PBM E-score |
| --- | --- |
| GCGAATAA | inactive: 0.0338 |
| AGACCGAG | inactive: -0.0404 |
| AAGTCCAG | inactive: -0.0216 |
| CCAGGGCC | inactive: -0.225 |
| GGAATGGA | inactive: -0.0697 |
| ACTTAAGC | inactive: -0.00779 |
| CGGGACGA | inactive: -0.0871 |
| AAAAAGAG | inactive: -0.0876 |
| GGCAGTAA | inactive: -0.0226 |
| GCAGCACA | inactive: -0.0955 |
| ACCCGGAG | inactive: -0.0531 |
| GAGGATTA | inactive: 0.0358 |
| GCCGACAC | inactive: -0.0167 |
| CTTCGATA | inactive: 0.0741 |
| GAACTTGC | inactive: 0.0541 |
| ACTGTAAA | inactive: 0.154 |
| AAACCAAA | inactive: 0.0468 |
| ATGGGTAG | inactive: -0.0307 |
| CATAAGAC | inactive: 0.163 |
| TGACCGAA | inactive: -0.0489 |
